Test in all cases: split reporter; split-luciferase complementation (LCI): CIPK1-nLUC and PYR1/PYLs-cLUC co-injected into N. benthamiana leaves, signal read after 72 h with a CCD camera
One assay deals with T1, PYL10-cLUC (Arabidopsis) (UniProt Q8H1R0).
T1 sequence: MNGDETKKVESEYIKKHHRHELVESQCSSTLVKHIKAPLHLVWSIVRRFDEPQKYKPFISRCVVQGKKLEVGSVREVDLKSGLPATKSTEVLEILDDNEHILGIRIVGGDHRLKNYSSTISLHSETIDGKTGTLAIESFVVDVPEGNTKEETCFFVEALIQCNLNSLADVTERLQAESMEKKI

For the next assay, the target named is T2, PYL12-cLUC (Arabidopsis) (UniProt Q9FJ49).
T2 sequence: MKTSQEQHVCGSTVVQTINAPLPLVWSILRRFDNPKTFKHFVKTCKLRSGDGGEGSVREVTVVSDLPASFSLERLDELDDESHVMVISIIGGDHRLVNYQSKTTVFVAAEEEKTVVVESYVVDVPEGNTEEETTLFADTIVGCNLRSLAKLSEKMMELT

Another assay concerns the target T3, PYL3-cLUC (Arabidopsis) (UniProt Q9SSM7).
T3 sequence: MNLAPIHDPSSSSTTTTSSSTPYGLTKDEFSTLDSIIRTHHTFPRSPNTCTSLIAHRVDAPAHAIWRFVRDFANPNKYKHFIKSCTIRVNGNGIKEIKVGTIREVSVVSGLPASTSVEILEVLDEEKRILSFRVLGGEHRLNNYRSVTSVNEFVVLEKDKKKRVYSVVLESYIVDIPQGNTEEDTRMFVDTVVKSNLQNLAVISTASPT

The target in a further assay is T4, PYL5-cLUC (Arabidopsis) (UniProt Q9FLB1).
T4 sequence: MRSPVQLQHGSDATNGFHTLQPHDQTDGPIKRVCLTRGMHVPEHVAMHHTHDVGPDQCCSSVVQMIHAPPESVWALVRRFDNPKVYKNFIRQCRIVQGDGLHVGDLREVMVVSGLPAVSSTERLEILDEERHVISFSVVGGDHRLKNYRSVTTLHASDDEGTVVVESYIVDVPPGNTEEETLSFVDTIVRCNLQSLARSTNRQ

The target in a further assay is T5, PYL8-cLUC (Arabidopsis) (UniProt Q9FGM1).
T5 sequence: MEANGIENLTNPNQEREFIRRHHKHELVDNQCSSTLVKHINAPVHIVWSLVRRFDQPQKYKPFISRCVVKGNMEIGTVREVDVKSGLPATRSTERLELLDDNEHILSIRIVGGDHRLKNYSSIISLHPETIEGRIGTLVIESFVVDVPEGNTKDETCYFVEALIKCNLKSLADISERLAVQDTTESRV

Results are given in words; binding and its absence hold for the method and conditions named. Binding seen in cells or lysates may run through a third protein. Some binding calls cover weakened binding; strength is not graded here. Tags and fused reporters may be left off the sequences shown.

B1: CIPK1-nLUC (enzyme, UniProt Q8RWC9 1-444)
chain: MVRRQEEEKKAEKGMRLGKYELGRTLGEGNFGKVKFAKDTVSGHSFAVKIIDKSRIADLNFSLQIKREIRTLKMLKHPHIVRLHEVLASKTKINMVMELVTGGELFDRIVSNGKLTETDGRKMFQQLIDGISYCHSKGVFHRDLKLENVLLDAKGHIKITDFGLSALPQHFRDDGLLHTTCGSPNYVAPEVLANRGYDGAASDIWSCGVILYVILTGCLPFDDRNLAVLYQKICKGDPPIPRWLSPGARTMIKRMLDPNPVTRITVVGIKASEWFKLEYIPSIPDDDDEEEVDTDDDAFSIQELGSEEGKGSDSPTIINAFQLIGMSSFLDLSGFFEQENVSERRIRFTSNSSAKDLLEKIETAVTEMGFSVQKKHAKLRVKQEERNQKGQVGLSVTAEVFEIKPSLNVVELRKSYGDSCLYRQLYERLLKDVGTSSPEQEIVT
Consider B1, for which the binding result is “no binding” with PYL10-cLUC (Arabidopsis); “no binding” in the assay with PYL12-cLUC (Arabidopsis); “binds” with PYL3-cLUC (Arabidopsis); “binds” in the assay with PYL5-cLUC (Arabidopsis); “no binding” with PYL8-cLUC (Arabidopsis).

The values above are taken from publication PMC10514306, “The CBL1/9-CIPK1 calcium sensor negatively regulates drought stress by phosphorylating the PYLs ABA receptor” (Nature Communications, 2023).
